Assay [1] concerns the target T1, IL-4 receptor alpha-Fc (R&D Systems) (human, UniProt P24394 26-232).
T1 construct: Bought Fc fusion
In words: SPR (Biacore), ~500 RU IL-4 receptor alpha-Fc, PEGylated mutein at 200, 67 and 22 nM. For orientation: Surface plasmon resonance follows binding to a sensor surface in real time, without labels.

Assay [2] concerns the target T2, human IL-4 receptor alpha on cells (peripheral blood lymphocytes, primary B cells, TF-1, A549, PBMC) (human, UniProt P24394 26-825).
T2 construct: Native receptor on human cells; also called IL-4Rα
In words: flow cytometry on human PBMC: lipocalin, anti-CD20-FITC, biotinylated anti-lipocalin antiserum, streptavidin-PE; B cells gated as CD20 positive [C].

The target in assay [3] is T2, human IL-4 receptor alpha on cells …. In words: flow cytometry, human peripheral blood lymphocytes, 10 µg/ml. On the technique in general: Flow cytometry measures light scatter and fluorescence of single cells or particles in a stream.
Assay [4] deals with T3, cynomolgus IL-4 receptor alpha on peripheral blood lymphocytes (cynomolgus).
T3 construct: whole, on cells
In words: flow cytometry, cynomolgus peripheral blood lymphocytes, 10 µg/ml.

The target of assay [5] is T1, IL-4 receptor alpha-Fc (R&D Systems). Put plainly: SPR (Biacore), IL-4 receptor alpha-Fc captured via anti-human Fc, mutein injected; average (SD) of five.
In assay [6] the target is T4, biotinylated IL-4 receptor alpha (Peprotech) (human, UniProt P24394 26-232, limits assumed, biotinylated (sites not told)).
T4 construct: Bought soluble protein; also called IL-4R alpha-bio
In words: competition ELISA: 0.5 nM biotinylated IL-4 receptor alpha pre-incubated with the mutein, free receptor caught on coated MAB230, detected with Extravidin-HRP; fit y = 0.5*(-m0+m2-m1+sqrt(-m0..., KD = m1 per legend paragraph 197)); x axis Anticaline/ nM; one representative experiment. In general terms: An ELISA detects its analyte on a solid surface through an enzyme-linked reagent.

Assay [7] addresses T4, biotinylated IL-4 receptor alpha …. In words: competition ELISA: biotinylated IL-4 receptor alpha (0.5 nM) preincubated with mutein, MAB230-coated plate (competitor MAB230); average (SD) of three.
Assay [8] shares this target. Put plainly: competition ELISA: 0.5 nM biotinylated IL-4 receptor alpha pre-incubated with the mutein, free receptor caught on coated MAB230, detected with Extravidin-HRP; fit y = 0.5*(-m0+m2-m1+sqrt(-m0..., KD = m1 per legend paragraph 197)); one representative experiment.
For assay [9] the target is unchanged. The assay is described as above. The source holds these as a separate data set.
Assay [10] shares this target. Put plainly: competition ELISA: 0.5 nM biotinylated IL-4 receptor alpha pre-incubated with the mutein, free receptor caught on coated MAB230, detected with Extravidin-HRP; fit y = 0.5*(-m0+m2-m1+sqrt(-m0..., KD = m1 per legend paragraph 197)); x axis Anticaline/ nM; one representative experiment. This is another data set of the same source.
For assay [11] the target is unchanged. The assay is described as above. This is another data set of the same source.
Assay [12] addresses T5, VEGF-R2-Fc (R&D Systems) (Homo sapiens (Human), UniProt P35968 20-764).
T5 construct: Bought Fc fusion; not shown: Fc part (detected with anti-human Fc antibody)
In words: competition ELISA: VEGF-R2-Fc (4 nM) preincubated with mutein, VEGF8-109-coated plate (competitor VEGF8-109).

Assay [13] concerns the target T5, VEGF-R2-Fc (R&D Systems). In words: SPR (Biacore), ~500 RU VEGF-R2-Fc captured, mutein injected at 1.5 µM.

T5 sequence (P35968 20-764 limits assumed): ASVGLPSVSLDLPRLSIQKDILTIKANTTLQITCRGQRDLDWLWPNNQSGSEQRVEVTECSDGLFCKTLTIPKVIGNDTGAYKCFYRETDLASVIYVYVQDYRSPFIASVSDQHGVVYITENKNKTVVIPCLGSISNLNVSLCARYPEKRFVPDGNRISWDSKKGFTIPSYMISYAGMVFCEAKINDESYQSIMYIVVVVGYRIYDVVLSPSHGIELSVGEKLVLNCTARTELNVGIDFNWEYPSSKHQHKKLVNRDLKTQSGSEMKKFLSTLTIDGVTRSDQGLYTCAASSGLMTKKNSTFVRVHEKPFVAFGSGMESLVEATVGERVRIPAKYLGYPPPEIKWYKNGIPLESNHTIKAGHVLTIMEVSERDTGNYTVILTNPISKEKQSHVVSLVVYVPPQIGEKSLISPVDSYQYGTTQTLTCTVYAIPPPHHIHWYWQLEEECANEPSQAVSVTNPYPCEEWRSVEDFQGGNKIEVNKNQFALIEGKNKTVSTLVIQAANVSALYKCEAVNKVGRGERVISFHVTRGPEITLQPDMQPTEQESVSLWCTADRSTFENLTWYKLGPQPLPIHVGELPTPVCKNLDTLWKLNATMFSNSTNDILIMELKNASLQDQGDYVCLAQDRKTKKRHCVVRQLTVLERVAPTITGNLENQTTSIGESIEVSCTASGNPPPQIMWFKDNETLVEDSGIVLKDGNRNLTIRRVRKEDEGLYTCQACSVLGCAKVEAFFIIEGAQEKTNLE

B1: PEGylated mutein S148.3 J14 (designed binder)
chain: DASMTGGQQMGASDEEIQDVSGTWYLKAMTVDSRCPRAYYGSVTPMTLTTLEGGNLEAKVTMQRIGRSQEVKAVLEKTDEPGKYTASGGRHVAYIIRSHVKDHYIFYSEGLCPGQPVPGVWLVGRDPKNNLEALEDFCKAAGARGLSTESILIPRQSETSSPGSAWSHPQFEK
modifications: chain 1 pos 138 (Cys at mature tear lipocalin position 131): thiol coupled to linear polyethylene glycol maleimide, average 20 kDa, written C
notes: also called S148.3 J14-PEG
For B1, in assay [1], binding was characterised by a dissociation constant (Kd) of 30 nM, the koff is 0.00493 s⁻¹ and the kon was 164000 M⁻¹ s⁻¹.

B2: wildtype tear lipocalin (gene product of pTLPC26) (other, human)
chain: ASDEEIQDVSGTWYLKAMTVDREFPEMNLESVTPMTLTTLEGGNLEAKVTMLISGRSQEVKAVLEKTDEPGKYTADGGKHVAYIIRSHVKDHYIFYSEGELHGKPVPGVWLVGRDPKNNLEALEDFEKAAGARGLSTESILIPRQSETSSPGSA
notes: Control; also called human tear lipocalin wt
For the molecule B2, the binding result in assay [2] was “no binding”.

B3: human tear lipocalin mutein S148.3 J14AM2C2 (designed binder)
chain: ASDEEIQDVSGTWYLKAMTVDSRCPRAYYESVTPMTLTTLEGGNLEAKFTLQRRGRWQEGKLVLEKTDEPGKYTASGGRHVAYIIRSHVKDHYIFYSEGLCPGQPVPGVWLVGRDPKNNLEALEDFEKAAGARGLSTESILIPRQSETSSPGSA
notes: C-terminal Strep-tag II is part of the characterized protein; also called S148.3 AM2C2
Turning to B3, in [3], the “% Positive” value stood at 76% and the MFI was 9.6. Further, in assay [4], the “% Positive” value came out at 68% and the MFI was 6.8. Further, in [5], the Kd stood at 0.0179 nM, the koff worked out at 4.2e-05 s⁻¹ and the on-rate constant (kon) was 2.3e+06 M⁻¹ s⁻¹. The molecule further yielded a Kd in assay [6] of 0.0371 nM. Besides, the affinity in assay [7], expressed as Kd, was 0.0407 nM.

B4: human tear lipocalin mutein S191.5 K12 (designed binder)
chain: ASDEEIQDVSGTWYLKAMTVDSRCPRAYYKSVTPMTLTTLEGGNLEAKFTAQRNGRWQELKLVLEKTDEPGKYAASGGRHVAYIIRSHVKDHYIFYSEGLCPGQPVPGVWLVGRDPKNNLEALEDFEKAAGARGLSTESILIPRQSETSSPGSA
notes: C-terminal Strep-tag II is part of the characterized protein
B4: in assay [3], the “% Positive” value came to 74% and the MFI amounted to 9.7. Also, in assay [8], the affinity, expressed as Kd, was 0.0372 nM. In addition, in assay [4], the “% Positive” value is 78% and the MFI was 9. In assay [5], this molecule yielded a Kd of 0.0135 nM, a koff of 7.7e-05 s⁻¹ and an association rate constant (kon) of 5.8e+06 M⁻¹ s⁻¹. This molecule registered a Kd in assay [7] of 0.0253 nM.

B5: human tear lipocalin mutein S191.4 K19 (designed binder)
chain: ASDEEIQDVSGTWYLKAMTVDSRCPRAHYSSVTPMTLTTLEGGNLEAKLTLQRAGRWQEGKIVLEKTDEPGKYTASGGRHVAYIIRSHVKDHYIFYSEGLCPGQPVPGVWLVGRDPKNNLEALEDFEKAAGARGLSTESILIPRQSETSSPGSA
notes: as for B4
Consider B5, for which, in assay [3], the “% Positive” value is 72% and the MFI is 8.9. Also, in [4], the “% Positive” value came to 65% and the MFI is 6.6. In assay [9], this molecule displayed a Kd of 0.104 nM. In assay [5], this molecule had a Kd of 0.0201 nM, a koff of 3.6e-05 s⁻¹ and a kon of 1.7e+06 M⁻¹ s⁻¹. Moreover, the Kd in assay [7] is 0.12 nM.

B6: human tear lipocalin mutein S191.5 H16 (designed binder)
chain: ASDEEIQDVSGTWYLKAMTVDSRCPRAYYDSVTPMTLTTLEGGNLEAKGTLQRKGRPQEMKLVLEKTDEPGKYTASGGRHVAYIIRSHVKDHYIFYSEGLCPGQPVPGVWLVGRDPKNNLEALEDFEKAAGARGLSTESILIPRQSETSSPGSA
notes: as for B4
As to B6, in assay [3], the “% Positive” value is 72% and the MFI was determined as 9. In addition, in assay [4], the “% Positive” value worked out at 42% and the MFI turned out to be 4.1. In [5], this molecule yielded a Kd of 0.0243 nM, a koff of 4.1e-05 s⁻¹ and an on-rate constant (kon) of 1.7e+06 M⁻¹ s⁻¹. The same molecule displayed a Kd in [10] of 0.0487 nM. Besides, binding in assay [7] was put at a Kd of 0.0617 nM.

B7: human tear lipocalin mutein S197.8 D22 (designed binder)
chain: ASDEEIQDVSGTWYLKAMTVDSRCPRAYYGSVTPMTLTTLEGGNLEAKLTLQRSGRWQESKVVLEKTDEPGKYTASGGRHVAYIIRSHVKDHYIFYSEGLCPGQPVPGVWLVGRDPKNNLEALEDFEKAAGARGLSTESILIPRQSETSSPGSA
notes: as for B4
Consider B7, for which, in [3], the “% Positive” value is 72% and the MFI came to 9.3. For the same molecule, in assay [11], binding was characterised by a dissociation constant (Kd) of 0.107 nM. For the same molecule, in assay [4], the “% Positive” value amounted to 70% and the MFI is 7.1. In addition, in [5], the dissociation constant Kd worked out at 0.0558 nM, the koff was determined as 6.3e-05 s⁻¹ and the association rate constant (kon) was found to be 1.1e+06 M⁻¹ s⁻¹. For the same molecule, in assay [7], the Kd was determined as 0.14 nM.

B8: human tear lipocalin mutein S197.7-N1 (designed binder)
chain: ASDEEIQDVSGTWYLKAMTVDSIFPSGRIYSVTPMTLTTLEGGNLEAKVTMEFRGRSQEVKAVLEKTDEPGKYTASGGEHVAYIIRSHVKDHYIFYSEGLAVRTPVPGVWLVGRDPKNNLEALEDFEKAAGARGLSTESILIPRQSETSSPGSA
B8 showed a Ki in the assay with VEGF-R2-Fc (R&D Systems) [12] of 12 nM. In the assay with VEGF-R2-Fc (R&D Systems) [13], this molecule registered a Kd of 5.5 nM, a koff of 0.00011 s⁻¹ and a kon of 21000 M⁻¹ s⁻¹.

B9: human tear lipocalin mutein S175.4 H11 (designed binder)
chain: ASDEEIQDVSGTWYLKAMTVDSIFPSGRIYSVTPMTLTTLEGGNLEAKVTMKFRGRSQEVKAVLEKTDEPGKYTASGGEHVAYIIRSHVKDHYIFYSEGLAVGTPVPGVWLVGRDPKNNLEALEDFEKAAGARGLSTESILIPRQSETSSPGSA
In the case of B9, in the assay with VEGF-R2-Fc (R&D Systems) [12], the Ki came to 12.9 nM. Besides, in the assay with VEGF-R2-Fc (R&D Systems) [13], the affinity, expressed as Kd, was 35 nM; the koff was 0.00036 s⁻¹; the kon was 9000 M⁻¹ s⁻¹.

B10: human tear lipocalin mutein S197.2-I18 (designed binder)
chain: ASDEEIQDVSGTWYLKAMTVDSIFPSGRIYSVTPMTLTTLEGGNLEAKVTMAFRGRSQEMKAVLEKTDEPGKYTASGGEHVAYIIRSHVKDHYIFYSEGLAVGTPVPGVWLVGRDPKNNLEALEDFEKAAGARGLSTESILIPRQSETSSPGSA
On to B10, for which, in the assay with VEGF-R2-Fc (R&D Systems) [12], the affinity, expressed as Ki, was 5.5 nM. Besides, in the assay with VEGF-R2-Fc (R&D Systems) [13], binding was characterised by a dissociation constant (Kd) of 3.1 nM, the koff was found to be 8.3e-05 s⁻¹ and the kon was 27000 M⁻¹ s⁻¹.

B11: human tear lipocalin mutein S197.7-B6 (designed binder)
chain: ASDEEIQDVSGTWYLKAMTVDSIFPSGRIYSVTPMTLTTLEGGNLEAKVTMEFRGRSQEVKAVLEKTDEPGRYTASGGEHVAYITRSHVKDHYIFYSEGLAVKTPVPGVWLVGRDPKNNLEALEDFEKAAGARGLSTESILIPRQSETSSPGSA
On to B11, for which affinity with VEGF-R2-Fc (R&D Systems) [12] was put at a Ki of 3.8 nM. Also, in the assay with VEGF-R2-Fc (R&D Systems) [13], binding was characterised by a dissociation constant (Kd) of 6 nM, the koff was found to be 0.00013 s⁻¹ and the kon was 23000 M⁻¹ s⁻¹.

B12: human tear lipocalin mutein S197.2-N24 (designed binder)
chain: ASDEEIQDVSGTWYLKAMTVDSIFPSGRIYSVTPMTLTTLEGGNLEAKVTMEFRGRSQKVKAVLEKTDEPGKYTASGGEHVAYIIKSHVKDHYIFYSEGLAVETPVPGVWLVGRDPKNNLEALEDFEKAAGARGLSTESILIPRQSETSSPGSA
With B12, the affinity with VEGF-R2-Fc (R&D Systems) [12], expressed as Ki, was 2.3 nM. In the assay with VEGF-R2-Fc (R&D Systems) [13], this molecule showed a Kd of 2.7 nM, a koff of 6.4e-05 s⁻¹ and a kon of 24000 M⁻¹ s⁻¹.

B13: human tear lipocalin mutein S197.2-L22 (designed binder)
chain: ASDEEIQDVSGTWYLKAMTVDSIFPSGRIYSVTPMTLTTLEGGNLEAKVTMEFRGRSQEVKAVLEKTGEPGKYTAPGGEHVAYIIRSHVKDHYIFYSEGLAVGTPVPGVWLVGRDPKNNLEALEDFEKAAGARGLSTESILIPRQSETSSPGSA
In turn, B13 gave a Ki with VEGF-R2-Fc (R&D Systems) [12] of 3.5 nM. In the assay with VEGF-R2-Fc (R&D Systems) [13], this molecule had a koff of 2.4e-05 s⁻¹ and a kon of 12000 M⁻¹ s⁻¹.

By Kd is commonly meant the concentration at which binding is half-saturated. What is called koff is a measure of how fast the partners let go of each other. A higher koff goes with a short-lived complex. One may read the kon as a measure of how fast the partners come together. For orientation: Ki means a measure of affinity in units of concentration, obtained from inhibition or displacement.

Source of the values: patent US20090305982A1 (Pieris, published 2009).
